No constants are given. Whether binding was seen depends on the method and setting. For some of these results: Binding seen in cells or lysates may run through a third protein. Some binding calls cover weakened binding; strength is not graded here. For some of these results: Where a sequence is shown, tags or fusion partners need not be part of it. Square brackets hold non-standard residues; d marks the D form. Ends that are not written are not given here. fluorescein = N-terminal fluorescein label; pS = N[C@@H](COP(=O)(O)O)C(=O)O
T1: S933
T1 sequence (peptide, fluorescein on the N-terminus): RCSPNLQRHSNSLGPIFDH

Amino acid sequences for entries named in this document (tags omitted).
UniProt Q5S007: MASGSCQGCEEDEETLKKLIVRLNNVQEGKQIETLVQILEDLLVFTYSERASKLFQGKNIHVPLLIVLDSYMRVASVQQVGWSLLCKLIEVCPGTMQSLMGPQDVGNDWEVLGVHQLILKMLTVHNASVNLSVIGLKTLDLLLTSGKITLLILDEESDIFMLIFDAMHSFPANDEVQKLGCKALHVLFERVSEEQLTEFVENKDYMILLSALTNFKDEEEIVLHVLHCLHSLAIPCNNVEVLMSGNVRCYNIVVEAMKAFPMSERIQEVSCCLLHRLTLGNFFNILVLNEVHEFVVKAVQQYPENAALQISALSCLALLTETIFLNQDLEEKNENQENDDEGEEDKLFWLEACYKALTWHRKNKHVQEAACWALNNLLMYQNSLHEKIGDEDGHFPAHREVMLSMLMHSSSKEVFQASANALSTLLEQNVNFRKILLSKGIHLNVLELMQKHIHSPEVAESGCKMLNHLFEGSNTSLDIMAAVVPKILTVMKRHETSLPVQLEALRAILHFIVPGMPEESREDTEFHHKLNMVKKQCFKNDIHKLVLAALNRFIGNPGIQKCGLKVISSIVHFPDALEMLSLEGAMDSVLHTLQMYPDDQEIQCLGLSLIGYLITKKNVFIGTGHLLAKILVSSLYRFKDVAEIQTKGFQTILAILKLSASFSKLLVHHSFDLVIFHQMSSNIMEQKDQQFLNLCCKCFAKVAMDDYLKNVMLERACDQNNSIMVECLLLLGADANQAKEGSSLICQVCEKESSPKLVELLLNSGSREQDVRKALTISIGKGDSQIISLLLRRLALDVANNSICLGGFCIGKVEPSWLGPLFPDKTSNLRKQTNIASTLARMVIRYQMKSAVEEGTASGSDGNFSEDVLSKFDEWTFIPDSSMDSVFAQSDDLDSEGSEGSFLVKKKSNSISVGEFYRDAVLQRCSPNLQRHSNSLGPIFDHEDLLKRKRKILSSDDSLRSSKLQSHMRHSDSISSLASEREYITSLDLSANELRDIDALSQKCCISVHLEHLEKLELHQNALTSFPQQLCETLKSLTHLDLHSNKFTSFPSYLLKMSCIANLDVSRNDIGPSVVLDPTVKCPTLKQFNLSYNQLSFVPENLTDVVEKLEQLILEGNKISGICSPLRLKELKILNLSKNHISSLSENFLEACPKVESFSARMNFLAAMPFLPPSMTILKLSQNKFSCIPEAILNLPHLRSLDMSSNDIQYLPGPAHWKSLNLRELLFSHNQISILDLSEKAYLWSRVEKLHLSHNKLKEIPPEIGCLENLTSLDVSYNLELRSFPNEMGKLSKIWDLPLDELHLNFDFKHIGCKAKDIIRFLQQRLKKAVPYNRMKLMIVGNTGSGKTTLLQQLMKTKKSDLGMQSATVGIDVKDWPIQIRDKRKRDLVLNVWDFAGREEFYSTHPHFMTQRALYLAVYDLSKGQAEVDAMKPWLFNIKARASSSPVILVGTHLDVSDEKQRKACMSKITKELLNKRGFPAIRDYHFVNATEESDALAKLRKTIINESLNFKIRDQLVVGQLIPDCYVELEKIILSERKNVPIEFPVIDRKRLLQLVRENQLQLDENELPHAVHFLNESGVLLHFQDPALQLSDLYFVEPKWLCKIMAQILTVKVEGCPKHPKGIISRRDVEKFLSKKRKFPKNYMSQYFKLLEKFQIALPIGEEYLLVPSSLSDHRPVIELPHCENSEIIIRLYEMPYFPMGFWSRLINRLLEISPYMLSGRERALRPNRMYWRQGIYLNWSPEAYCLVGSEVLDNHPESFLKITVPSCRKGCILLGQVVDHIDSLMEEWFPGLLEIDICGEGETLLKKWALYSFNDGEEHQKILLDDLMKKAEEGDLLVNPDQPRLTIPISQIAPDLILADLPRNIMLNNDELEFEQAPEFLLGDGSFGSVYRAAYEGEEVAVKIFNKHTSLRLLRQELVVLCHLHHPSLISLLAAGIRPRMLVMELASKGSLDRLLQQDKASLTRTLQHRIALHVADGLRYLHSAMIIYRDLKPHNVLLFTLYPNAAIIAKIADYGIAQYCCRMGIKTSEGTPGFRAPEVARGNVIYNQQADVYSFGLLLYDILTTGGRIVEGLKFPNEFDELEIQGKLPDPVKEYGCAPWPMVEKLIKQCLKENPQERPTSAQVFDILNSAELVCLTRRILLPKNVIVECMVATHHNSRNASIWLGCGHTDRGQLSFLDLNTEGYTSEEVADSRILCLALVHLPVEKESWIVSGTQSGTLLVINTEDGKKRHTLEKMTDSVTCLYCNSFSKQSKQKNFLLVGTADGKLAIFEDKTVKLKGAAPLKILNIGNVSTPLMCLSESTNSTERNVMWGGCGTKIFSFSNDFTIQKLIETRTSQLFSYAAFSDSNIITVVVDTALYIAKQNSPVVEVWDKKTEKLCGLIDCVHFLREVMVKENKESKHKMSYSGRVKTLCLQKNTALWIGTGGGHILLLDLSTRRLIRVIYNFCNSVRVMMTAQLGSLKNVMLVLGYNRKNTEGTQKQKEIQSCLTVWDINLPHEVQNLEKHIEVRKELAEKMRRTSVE

T2: pS935
T2 sequence (peptide, fluorescein on the N-terminus; phosphoserine at 935): SPNLQRHSNSLGPIF

T3: S935
T3 sequence (peptide, fluorescein on the N-terminus): SPNLQRHSNSLGPIF

T4: R1441C/pS1444 (R1441C (stands in the printed letters))
T4 construct: LRRK2-derived peptide of the Roc domain with the familial PD mutation R1441C, phosphorylated at S1444; source: synthetic peptide (Peps4LS GmbH)
T4 peptide: fluorescein-LFNIKACAS[pS]SPVILVGT

T5: S910
T5 sequence (peptide, fluorescein on the N-terminus): SFLVKKKSNSISVGEFYRD

T6: pS910
T6 sequence (peptide, fluorescein on the N-terminus; phosphoserine at 910): SFLVKKKSNSISVGEFYRD


Key:
[1] = molecular target: FLAG-Strep-Strep-tagged full-length LRRK2 wild type (UniProt Q5S007); assay: pull-down; FSS-LRRK2 co-expressed with HA-FLAG-14-3-3 isoform in HEK293T; LRRK2 captured from the lysate on Strep-Tactin Superflow; washes with 0.5 mM GDP and with 850 mM NaCl, 1% Tween 20; anti-FLAG Western blot
S933 = molecular target: T1, S933; assay: fluorescence polarisation; direct binding; dilution series of 14-3-3 isoform (at least 5 μM down to picomolar) mixed with 1 nM fluorescein-labelled peptide; 20 mM MOPS pH 7, 150 mM NaCl, 0.005% CHAPS; 384-well plates; both purified
pS935 = molecular target: T2, pS935; assay: as above
S935 = molecular target: T3, S935; assay: as above
R1441C/pS1444 = molecular target: T4, R1441C/pS1444; assay: as above
S910 = molecular target: T5, S910; assay: as above
pS910 = molecular target: T6, pS910; assay: as above

binding [1]	binding (pS935)	binding (S935)	binding (R1441C/pS1444)	Molecule	other results
	no binding (tested: at least 5 μM)	no binding (tested: at least 5 μM)		human 14-3-3 isoform γ (recombinant, MBP tag removed) (protein, UniProt P61981 1-247) MVDREQLVQKARLAEQAERYDDMAAAMKNVTELNEPLSNEERNLLSVAYKNVVGARRSSWRVISSIEQKTSADGNEKKIEMVRAYREKIEKELEAVCQDVLSLLDNYLIKNCSETQYESKVFYLKMKGDYYRYLAEVATGEKRATVVESSEKAYSEAHEISKEHMQPTHPIRLGLALNYSVFYYEIQNAPEQACHLAKTAFDDAIAELDTLNEDSYKDSTLIMQLLRDNLTLWTSDQQDDDGGEGNN	binding (S933): no binding (tested: at least 5 μM)
binds				FLAG-HA-14-3-3 η (human) (protein, UniProt Q04917 1-246) MGDREQLLQRARLAEQAERYDDMASAMKAVTELNEPLSNEDRNLLSVAYKNVVGARRSSWRVISSIEQKTMADGNEKKLEKVKAYREKIEKELETVCNDVLSLLDKFLIKNCNDFQYESKVFYLKMKGDYYRYLAEVASGEKKNSVVEASEAAYKEAFEISKEQMQPTHPIRLGLALNFSVFYYEIQNAPEQACLLAKQAFDDAIAELDTLNEDSYKDSTLIMQLLRDNLTLWTSDQQDEEAGEGN	
	no binding (tested: at least 5 μM)	no binding (tested: at least 5 μM)	binds weakly	human 14-3-3 isoform ε (recombinant, MBP tag removed) (natural protein, UniProt P62258 1-255, looked up, 14-3-3 epsilon, human; Expressed from pMAL2CX plasmids; also called 14-3-3ε; source: E. coli BL21DE3, purified (maltose-agarose, Factor Xa, anion exchange)) MDDREDLVYQAKLAEQAERYDEMVESMKKVAGMDVELTVEERNLLSVAYKNVIGARRASWRIISSIEQKEENKGGEDKLKMIREYRQMVETELKLICCDILDVLDKHLIPAANTGESKVFYYKMKGDYHRYLAEFATGNDRKEAAENSLVAYKAASDIAMTELPPTHPIRLGLALNFSVFYYEILNSPDRACRLAKAAFDDAIAELDTLSEESYKDSTLIMQLLRDNLTLWTSDMQGDGEEQNKEALQDVEDENQ	binding (S910): no binding (tested: at least 5 μM); binding (pS910): no binding (tested: at least 5 μM)
	no binding (tested: at least 5 μM)	no binding (tested: at least 5 μM)	binds weakly	human 14-3-3 isoform θ (recombinant, MBP tag removed) (natural protein, UniProt P27348 1-245, looked up, 14-3-3 theta, human; Expressed from pMAL2CX plasmids; also called 14-3-3θ; source: E. coli BL21DE3, purified (maltose-agarose, Factor Xa, anion exchange)) MEKTELIQKAKLAEQAERYDDMATCMKAVTEQGAELSNEERNLLSVAYKNVVGGRRSAWRVISSIEQKTDTSDKKLQLIKDYREKVESELRSICTTVLELLDKYLIANATNPESKVFYLKMKGDYFRYLAEVACGDDRKQTIDNSQGAYQEAFDISKKEMQPTHPIRLGLALNFSVFYYEILNNPELACTLAKTAFDEAIAELDTLNEDSYKDSTLIMQLLRDNLTLWTSDSAGEECDAAEGAEN	
	no binding (tested: at least 5 μM)	no binding (tested: at least 5 μM)	binds weakly	human 14-3-3 isoform β (recombinant, MBP tag removed) (natural protein, UniProt P31946 1-246, looked up, 14-3-3 beta, human; Expressed from pMAL2CX plasmids; also called 14-3-3β; source: E. coli BL21DE3, purified (maltose-agarose, Factor Xa, anion exchange)) MTMDKSELVQKAKLAEQAERYDDMAAAMKAVTEQGHELSNEERNLLSVAYKNVVGARRSSWRVISSIEQKTERNEKKQQMGKEYREKIEAELQDICNDVLELLDKYLIPNATQPESKVFYLKMKGDYFRYLSEVASGDNKQTTVSNSQQAYQEAFEISKKEMQPTHPIRLGLALNFSVFYYEILNSPEKACSLAKTAFDEAIAELDTLNEESYKDSTLIMQLLRDNLTLWTSENQGDEGDAGEGEN	

Further lines, the molecule ahead of its results:

Molecule	binding [1]	binding (pS935)	binding (S935)	binding (R1441C/pS1444)	other results
FLAG-HA-14-3-3 ε (human) (from UniProt P62258 1-255)	binds				
FLAG-HA-14-3-3 β (human) (from UniProt P31946 1-246)	binds				
FLAG-HA-14-3-3 γ (human) (protein, UniProt P61981 1-247) MVDREQLVQKARLAEQAERYDDMAAAMKNVTELNEPLSNEERNLLSVAYKNVVGARRSSWRVISSIEQKTSADGNEKKIEMVRAYREKIEKELEAVCQDVLSLLDNYLIKNCSETQYESKVFYLKMKGDYYRYLAEVATGEKRATVVESSEKAYSEAHEISKEHMQPTHPIRLGLALNYSVFYYEIQNAPEQACHLAKTAFDDAIAELDTLNEDSYKDSTLIMQLLRDNLTLWTSDQQDDDGGEGNN	binds				
human 14-3-3 isoform η (recombinant, MBP tag removed) (natural protein, UniProt Q04917 1-246, looked up, 14-3-3 eta, human; Expressed from pMAL2CX plasmids; also called 14-3-3η; source: E. coli BL21DE3, purified (maltose-agarose, Factor Xa, anion exchange)) MGDREQLLQRARLAEQAERYDDMASAMKAVTELNEPLSNEDRNLLSVAYKNVVGARRSSWRVISSIEQKTMADGNEKKLEKVKAYREKIEKELETVCNDVLSLLDKFLIKNCNDFQYESKVFYLKMKGDYYRYLAEVASGEKKNSVVEASEAAYKEAFEISKEQMQPTHPIRLGLALNFSVFYYEIQNAPEQACLLAKQAFDDAIAELDTLNEDSYKDSTLIMQLLRDNLTLWTSDQQDEEAGEGN		no binding (tested: at least 5 μM)	no binding (tested: at least 5 μM)	binds weakly	
human 14-3-3 isoform ζ (recombinant, MBP tag removed) (natural protein, UniProt P63104 1-245, looked up, 14-3-3 zeta, human; Expressed from pMAL2CX plasmids; also called 14-3-3ζ; source: E. coli BL21DE3, purified (maltose-agarose, Factor Xa, anion exchange)) MDKNELVQKAKLAEQAERYDDMAACMKSVTEQGAELSNEERNLLSVAYKNVVGARRSSWRVVSSIEQKTEGAEKKQQMAREYREKIETELRDICNDVLSLLEKFLIPNASQAESKVFYLKMKGDYYRYLAEVAAGDDKKGIVDQSQQAYQEAFEISKKEMQPTHPIRLGLALNFSVFYYEILNSPEKACSLAKTAFDEAIAELDTLSEESYKDSTLIMQLLRDNLTLWTSDTQGDEAEAGEGGEN		no binding (tested: at least 5 μM)	no binding (tested: at least 5 μM)	binds weakly	
FLAG-HA-14-3-3 θ (human) (protein, UniProt P27348 1-245) MEKTELIQKAKLAEQAERYDDMATCMKAVTEQGAELSNEERNLLSVAYKNVVGGRRSAWRVISSIEQKTDTSDKKLQLIKDYREKVESELRSICTTVLELLDKYLIANATNPESKVFYLKMKGDYFRYLAEVACGDDRKQTIDNSQGAYQEAFDISKKEMQPTHPIRLGLALNFSVFYYEILNNPELACTLAKTAFDEAIAELDTLNEDSYKDSTLIMQLLRDNLTLWTSDSAGEECDAAEGAEN	binds				
